Data from publication PMC5515408.
The other results are listed elsewhere or left out. At the low end of the ranking the order means little.

Each sequence was assayed on MYC (p64) + MAX (p21), in MYC:MAX (assay: protein-binding microarray (anti-MAX antibody)). Settings: PBM: 15 mM Tris-HCl pH 7.5, 100 mM KCl, 0.075% NP40, 7.5 mM beta-mercaptoethanol, 375 ng/ul BSA, 8 ng/ul poly(dA-dT):(dA-dT), 550 ng complex, 60 min, room …; high values mean tight binding; double strand, one strand shown; sequences stand for … in CCGGC…TTAATAGCTAAGATTACTATATCGACG.

| Sequence | binding signal (log2 normalized fluorescence) |
| --- | --- |
| TGACGCTGTGTA | 0.122 |
| TGATCCGCTGTA | -0.0182 |
| TTACACGTGGTA | 0.847 |
| TGATTTCAGGTA | -0.268 |
| TGTTACGTGGTA | 0.418 |
| TGAGCCCGAGTA | -0.203 |
| TGACATGTGATA | 0.694 |
| TGATGAGCAGTA | -0.0208 |
| TGATATATCGTA | 0.0668 |
| TGACGCCAGGTA | 0.186 |
| TGAGCCTCGGTA | 0.114 |
| TGTCACCTTGTA | 0.395 |
| TGACTCAGCGTA | 0.0353 |
| TGAAGAAAAGTA | -0.132 |
| TGATCGTGTGTA | 0.406 |
| TGACCACATGTA | 0.581 |
| TGATACCACGTA | 0.299 |
| TGACTAGCAGTA | -0.0743 |
| TGATAGGTTGTA | -0.209 |
| TGAAATTTTGTA | -0.246 |
| TGAATAAGCGTA | -0.00477 |
| TGAAACGTGGTA | 0.637 |
| TGACACGTTGAA | 0.44 |

| Sequence | binding signal (log2 normalized fluorescence) |
| --- | --- |
| TGACCAAACGTA | 0.237 |
| TGAACCGTGGTA | 0.207 |
| TGAGACTGGGTA | -0.103 |
| TGAAGGTCGGTA | -0.0977 |
| TGAGCACAGGTA | 0.141 |
| TGAGCTTGGGTA | -0.149 |
| TGATCGCACGTA | 0.115 |
| TGAATCGTTGTA | 0.13 |
| TGACGGCTTGTA | -0.0228 |
| TGACCTCTCGTA | 0.0599 |
| ACTATCTTTGTT | 0.032 |
| TGATTCGAGGTA | -0.0274 |
| TGAGTTTCCGTA | -0.0243 |
| TGAAGAGCTGTA | 0.00393 |
| TGAGACTTAGTA | -0.116 |
| TGAGGGTTCGTA | -0.0138 |
| TGAGTACGTGTA | 0.0477 |
| TGAAGCGACGTA | 0.0624 |
| TGAAACACCGTA | 0.333 |
| TGAAGGTCAGTA | 0.0356 |
| TGATCGTCGGTA | -0.0726 |
| TGATGAGATGTA | 0.0453 |
| TGACACGTAATA | 0.279 |

| Sequence | binding signal (log2 normalized fluorescence) |
| --- | --- |
| TGAGCATCCGTA | 0.0794 |
| TGAAGCCCTGTA | -0.014 |
| TGAATCGTCGTA | 0.00644 |
| ACTCACGTGGTA | 0.862 |
| TGACGTCTGGTA | 0.0941 |
| TGACACGGATTA | 0.193 |
| TGAAACATAGTA | -0.0101 |
| TGAAGGCGGGTA | 0.0594 |
| TGATTCTGAGTA | -0.287 |
| TGATCCATAGTA | -0.0476 |
| TGATATGCCGTA | 0.0609 |
| AGTCACATGGTA | 0.995 |
| TTCTACGTGGTA | 0.444 |
| TGACGATTTGTA | 0.1 |
| TGACGCAGCGTA | 0.178 |
| TGATTCCGCGTA | -0.0293 |
| TGACACCAAGTA | 0.0437 |
| TGAATGATAGTA | 0.131 |
| TGAAAATTGGTA | -0.193 |
| TGACACTAGGTA | 0.221 |
| TGATTAACGGTA | -0.00324 |
| TGAGCGTGGGTA | 0.524 |
| GGACACGTGTGA | 0.779 |

| Sequence | binding signal (log2 normalized fluorescence) |
| --- | --- |
| TGAGGGGGGGTA | 0.784 |
| TGAGTTCACGTA | 0.0567 |
| TAACACGTGGAA | 0.812 |
| TGATTGGTTGTA | -0.0476 |
| TGACCAACCGTA | 0.0787 |
| TGAGCTTGAGTA | -0.0837 |
| TGAGCAGTGGTA | -0.00429 |
| TGATATTTAGTA | -0.226 |
| TGACACGTGGGT | 0.725 |
| TGAAGGGTAGTA | -0.19 |
| TGAACACTAGTA | 0.244 |
| TGATATGTAGTA | -0.158 |
| TGACGAGTCGTA | 0.271 |
| TGAACCGCTGTA | 0.0828 |
| TGACGGCTCGTA | -0.157 |
| TGACAGCATGTA | 0.547 |
| TGAGTTAGAGTA | -0.335 |
| TGATAGGGTGTA | -0.0201 |
| TGACTAGCTGTA | -0.0161 |
| TGAGGCGATGTA | 0.183 |
| TGAATATCTGTA | -0.113 |
| TGAGGGCTCGTA | -0.0239 |
| TGAGACGCGGTA | 0.217 |

| Sequence | binding signal (log2 normalized fluorescence) |
| --- | --- |
| TGAGTGCGTGTA | 0.518 |
| TGACAAGGAGTA | 0.244 |
| TGACCTTGCGTA | 0.232 |
| TGACAAGTGGTT | 0.235 |
| TGACCCTAAGTA | -0.0394 |
| TGAGTCCACGTA | 0.214 |
| TGAGCAGGTGTA | 0.313 |
| TGAGTACAAGTA | 0.0729 |
| TGGCACAAGGTA | 0.389 |
| TGATGGCGGGTA | 0.232 |
| TGACTCCGCGTA | 0.24 |
| TGATCCCGGGTA | 0.0486 |
| TGAGAACGCGTA | 0.268 |
| TGAGACAGGGTA | -0.0086 |
| TGAATAGCTGTA | -0.072 |
| TGAGGATGTGTA | -0.01 |
| TGAATTCTCGTA | -0.00607 |
| TGATGGATAGTA | 0.0458 |
| TGATAGGGAGTA | -0.118 |
| TGAGCCATCGTA | 0.0938 |
| TGATGCTCGGTA | 0.254 |
| TGAGTGTTTGTA | 0.0241 |
| TGAAGTGACGTA | 0.204 |

| Sequence | binding signal (log2 normalized fluorescence) |
| --- | --- |
| TGAGCAGATGTA | 0.417 |
| TGAACCTCGGTA | 0.0976 |
| TGATTAAGTGTA | -0.0933 |
| TGGACCGTGGTA | 0.269 |
| TGATAGAGTGTA | -0.0737 |
| TGATGGGTGGTA | 0.276 |
| TGACACTTCGTC | 0.129 |
| TGATCTTACGTA | 0.0273 |
| TGATGAAAAGTA | 0.0763 |
| TGAAGCGTGTTA | 0.719 |
| TCACACGTGGTA | 0.998 |
| TGATCTGCGGTA | 0.0671 |
| TGACCCCAAGTA | 0.0379 |
| GGACTCGTGGTA | 0.577 |
| TGAGTTCCGGTA | -0.0712 |
| TGAGACGTGATA | 0.339 |
| TGAGCTAACGTA | -0.00828 |
| TGACAATCCGTA | 0.143 |
| TGAAACGCAGTA | 0.155 |
| TGAGCGATGGTA | -0.0926 |
| TGAAAGCTTGTA | -0.0546 |
| TGAAGGCAGGTA | -0.0834 |
